167 variants from the RNAGym collection of RNA variant scans (doi:10.7554/elife.90254) can be followed below.

Read counts are not given, so values of variants with three or more changes are uncertain.

B1: LINE1-mini (parent)
chain: GGCAGAGCUCAACACAGCGUGGCAAAGUGGCUGUGGCUAGACUGCC

The variants in the data set derive from B1. Nature of the data set: self-cleavage, relative activity (ratio to wild type); higher = more cleavage; in vitro, sequencing; the parent is a self-cleaving ribozyme.
For the variant G1U G5C G27A, the self-cleavage came to 0.02.
For G1C C15A A25U A39C G40U, the self-cleavage is 0.01.
The result for G1C G22C G30U U38G C46U reads 0.01.
As for G1U A6U U34C C46G, the figure is 0.03; as for G1U A24G G33C C37A, 0.
As for G1U A6U G22A U28G G35C, the figure is 0.07; as for G1U A12G G21A, 0.01; as for G1C U9G A16U G35A, 0.04.
Take G1C G2U G7C G29C: the self-cleavage worked out at 0.01.
The result for G1U A11C C18A A25C G36U reads 0.01; that for G1U A11U A25G G36U, 0.
The result for G1C G5A A12U G44A reads 0.01; that for G1U A11U G36C, 0.01.
As for G1C C13U U38A, the self-cleavage worked out at 0.1.
The result for G1U A4C C45U reads 0.03; that for G1U C37A A41G, 0.03; that for G1U A4C G22U C23U C37A C46U, 0.17.
The result for G1U A16G G22U reads 0.04; that for G1U C15G A26G, 0.02; that for G1C G19A U32A, 0.03.
The result for G1U C10A C13A A16C G27U reads 0.01; that for G1C G7C A25G, 0.01; that for G1U C3U U9G G33C, 0.04.
For the variant G1U A16G C23U, the self-cleavage was determined as 0.1.
The result for G1U C13U A25U G29U G33U G44C reads 0.05; that for G1U A4G G7A G19C U38C G44C, 0.01.
As to G1C G7U C13A G44U, the self-cleavage stood at 0.11.
As for G1U C10U C46U, the figure is 0.52; as for G1U G5C C13U G19A, 0.03; as for G1U C18G G19C U28G G33U C42A, 0.01.
The result for G1U G5U C15G A25G U43C reads 0.
The result for G1C C15A C23G G40C reads 0.02; that for G1U A6G C8G, 0.03.
As for G1U C18U G36A C46G, the self-cleavage amounted to 0.04.
Take G1C C23A U34A C42U: the self-cleavage came out at 0.02.
The result for G1U A4G G17U C31U G36U C37A reads 0.94; that for G1U C3A U43G, 0.19; that for G1U A24U C37A A41U, 0.04.
The result for G1U C10A A14C G21U G33C C45U reads 0.01; that for G1C G7A G44U, 0.12.
The result for G1U A12G C15G G44C reads 0.04; that for G1C G7C G29C U34A, 0.01.
Regarding G1U C8A A12G C13G G22U C37G U43A, the self-cleavage stood at 0.
As for G1U A6U U34C, the figure is 0.09.
As for G1C G21U G27U, the figure is 0.14.
As to G1U C23A G29A U32C A41C, the self-cleavage came out at 0.02.
With G1C C15A A24C A26G G36C C46U, the self-cleavage was found to be 0.01.
The result for G1U C3G G30C A39G reads 0.06; that for G1U C13U A16C G17U, 0.02; that for G1C U28A C37G, 0.01.
As for G1U G2C C8A G17U U20A, the figure is 0.04; as for G1C G29U U43A, 0.02.
Regarding G1U G5C G44C, the self-cleavage was 0.03.
The result for G1U A11G C15G G27U U28C reads 0.01; that for G1C G2U U20G G30A, 0.02.
As for G1U G2U A6U C13A C18U U28C, the figure is 0.03; as for G1U A6G G30C U38G, 0; as for G1U C8A G30U G33A U34C A41U, 0.12.
As for G1U C10G C37A A41C, the figure is 0; as for G1C C18U C23U C46G, 0.21.
Regarding G1U A6U U32G, the self-cleavage stood at 0.06.
For G1C G5U C18A U32A, the self-cleavage turned out to be 0.
The result for G1C C13G A14G C18A G30U C45G reads 0; that for G1U G5C C15A C18G C23U G35U A39G, 0.
For G1U C15A G29U, the self-cleavage amounted to 0.05.
As for G1C G2C C8A A26G G30U G33U, the figure is 0.05; as for G1U G2C G44A, 0.05.
With G1U A25G A41G, the self-cleavage is 0.04.
The result for G1U C8U C37A G44U reads 0; that for G1U A6G C37A A41G U43G, 0.03.
As to G1U C3A A4U G35U C42A, the self-cleavage came out at 0.08.
As for G1C G22U C42U, the figure is 0.1; as for G1U C37U U43C, 0.03; as for G1U C3G A26C G36A, 0.37.
As for G1C C15G C37A, the figure is 0.02.
As for G1U A14C G40A C45A, the figure is 0.06; as for G1C G22U G40U, 0.03; as for G1U C13U C37U U38C, 0.01.
With G1U A11U G22A G27U G40C G44A, the self-cleavage was 0.
As for G1U A6G C18U C23U A24U, the figure is 0.11; as for G1U C8U A24G, 0.11; as for G1C G35U C45U, 0.03.
The result for G1U C13U U28G reads 0.06; that for G1C G7U C45G, 0.01.
For G1U A4C A12U C23A U28G G40C, the self-cleavage amounted to 0.
As for G1U C8U G29A C31G A39C G44A C46U, the figure is 0.02; as for G1C G7C G30C U34C G36C C37A, 0.01.
As for G1U C8U C42A, the figure is 0.11; as for G1C G19C C37U, 0.
As for G1U G5C A14C, the figure is 0.01.
On to G1U A6C U34C, for which the self-cleavage was 0.03.
As for G1U C10A U43A, the figure is 0.01; as for G1C G7A U9G G21C G29A U38C A39C, 0.
For the variant G1U C8G G36U C46U, the self-cleavage turned out to be 0.03.
G1U C10A C15U G17C: the self-cleavage was 0.03.
As for G1C C15G G29U A41G, the figure is 0.01; as for G1U C3G U9A G19A G22C, 0.06.
As for G1C G5U C46G, the figure is 0.06.
As for G1U C10U G21U C31A G40A, the figure is 0.01; as for G1U G2C G35A, 0.02; as for G1U A4U G27C, 0.12.
On to G1C G7C C23A C31U, for which the self-cleavage was 0.03.
As for G1C G2C G17U U28C C31U A39G, the figure is 0.06; as for G1U C3A A6G G7A C31A, 0.45; as for G1U G5U G17U C46A, 0.02.
As for G1C G5C G21C G27A U38C, the figure is 0.02; as for G1U A16U A41G G44U, 0.04.
As for G1U C8A G30U, the figure is 0.23; as for G1U G2U C18A C42A, 0.01; as for G1U A24U U32C, 0.04.
Turning to G1U C3U C15G G17C A41U, the self-cleavage turned out to be 0.35.
As for G1C U32C C37A U43C, the figure is 0.01; as for G1C U34A G36U, 0; as for G1U C3U G35U C46A, 0.1.
The result for G1U C8A U9G A26G reads 0.02; that for G1U G5U G7U U43A, 0.03.
As for G1U G5C A6C A25C A26U G27U U34G A39C, the figure is 0.
For G1U C3A A11G C18U G29A G30C C31A G44A, the self-cleavage is 0.01.
As for G1C C18G G27C, the figure is 0.1; as for G1U C10U A25U, 0.03; as for G1U C8A A26C, 0.1.
Turning to G1U A6U U20C U38G, the self-cleavage worked out at 0.
As for G1U C13A G30C, the figure is 0.06; as for G1U A6C G22C A26C G35C G40C U43G C45A, 0; as for G1U A4C C8G U32C C45A, 0.08.
For G1C G27C U43G, the self-cleavage is 0.01.
The result for G1C G21U G29A C37U reads 0.01; that for G1U A4C A26C G27A G36C A41U, 0.09.
The result for G1U A6G C10A A11G A14G G21C reads 0.02; that for G1C G21A U34A C42U, 0.03.
As for G1U C13A C15G A39C A41C, the figure is 0.01.
As for G1U C15G G21U, the self-cleavage worked out at 0.02.
As to G1U A6G G21U G36A, the self-cleavage is 0.03.
Consider G1U G5C C46A, for which the self-cleavage was determined as 0.03.
For the variant G1U A39C C46G, the self-cleavage stood at 0.07.
For the variant G1C U9C G19A A25G G33U C46A, the self-cleavage is 0.01.
As for G1U C15U G35U G40C, the figure is 0.29.
As for G1U A12G C31U, the figure is 0.11.
The result for G1U C15G A39U C45U reads 0.01.
As to G1C C15A G17A, the self-cleavage was found to be 0.01.
G1U C8A C37G: the self-cleavage was determined as 0.
As for G1C G5U G29U, the figure is 0.06; as for G1C G5U G29C, 0; as for G1U C18A G21U, 0.06.
As to G1U G5C C10A C18A G40U, the self-cleavage amounted to 0.02.
As for G1C C23A A26U, the figure is 0.36; as for G1U C10A G22U G40U C42U, 0.09; as for G1C U20G A39U, 0.01.
As for G1C G2A G30U, the figure is 0.05; as for G1U C3U G30C C31G U38A C42U, 0.08.
The result for G1C U34G G35U G36C C45U reads 0.01; that for G1C G5C G19C G21U C31A G44A, 0.02.
Regarding G1U C3U A24U A41U, the self-cleavage was determined as 0.76.
As for G1C U43C C46A, the figure is 0.01; as for G1C C31A U32A A41C, 0.01.
As for G1U C8U C18A G29C G30U, the figure is 0.04.
The result for G1U C15U C18U A25G G35A G40A reads 0.08.
As for G1U C3G C8U C46G, the self-cleavage worked out at 0.19.
With G1C G2C G7C C10U A26U, the self-cleavage was 0.05.
Regarding G1C G7A C10A A12U A14U, the self-cleavage amounted to 0.02.
The result for G1U C15A U28G reads 0.14; that for G1C U20A G29U U43A, 0.
The result for G1U C13U G40A reads 0.03; that for G1U A16C C18U G21U U34A, 0.02.
The result for G1U C8A G30U G36U reads 0.02.
Turning to G1C C23G C42G C45A, the self-cleavage came out at 0.01.
As for G1C G5C C23G G33C A39U, the figure is 0.01.
